# Data as given in patent publication US20130059385A1, “METHODS OF GENERATING PLURIPOTENT STEM CELLS” (THE SCRIPPS RESEARCH INSTITUTE, priority 2010, published 2013).
# Test system: OG2 MEFs transduced with Oct4 and Klf4
# Assay: Reprogramming of MEFs transduced by Oct4 and Klf4 only (GFP-positive iPS colonies)
# Type: cell-based, mouse
# Settings: 10 μM CHIR99021, 4-5 weeks after Oct4/Klf4 transduction, average
# Source text: FIG. 2. […] Scale bars, 20μm.
# Cell Culture and Viral Transduction: MEFs were derived from 12952/SvPasCrlf and ROSA26^+/−/OG2^+/− mice according to the protocol reported on WiCell Research Institute website: “Introduction to human embryonic stem cell culture methods”. ROSA26^+/−/OG2^+/− transgenic mice carry GFP reporter gene under the control of the Oct4 promoter (Oct4-GFP) and the ubiquitously expressed neo/lacZ transgene [Do J T, Scholer H R, Stem Cells, 22:941-949 (2004)]. Animal experiments were performed according to the Animal Protection Guidelines of the Max Planck Institute for Biomolecular Research, Germany. […] MEFs transduced with Oct4/Klf4/Sox2 (1×10^4 cells/well together with 10^5 cells/well CF1 feeders in 6-well plates) were then treated with GSK-3 inhibitor CHIR99021 (Stemgent) for two weeks, and EGFP positive colonies were picked up at the third week after treatment. MEFs transduced with Oct4/Klf4 (1×10^5 cells/well in 6-well plates) were treated with 10 μM CHIR99021 for four weeks, GFP positive colonies were picked up and expanded at the fourth to fifth week after treatment.
compound,measurement,value
Cc1c[nH]c(-c2cnc(NCCNc3ccc(C#N)cn3)nc2-c2ccc(Cl)cc2Cl)n1 [CHIR99021],GFP positive colonies out of 10^5 OG2 MEFs,about six
